The densities may have been worked out from excess volumes.
Test: xn = mol fraction of the nth substance listed
Conditions: 101 kPa

OCC(F)(F)F + CCCC[n+]1ccn(C)c1.O=S(=O)([N-]S(=O)(=O)C(F)(F)F)C(F)(F)F gave a mass density (278.15 K, x1 = 0.0877) of 1455.2 kg/m3, a mass density (278.15 K, x1 = 0.8748) of 1433.5 kg/m3 and a mass density (278.15 K, x1 = 1) of 1416.6 kg/m3. For the same molecule, the mass density (283.15 K, x1 = 0.0877) was 1450.3 kg/m3, the mass density (283.15 K, x1 = 0.2626) was 1448 kg/m3 and the mass density (283.15 K, x1 = 0.4753) was 1443.7 kg/m3. For the same molecule, the mass density (283.15 K, x1 = 0.6153) was 1439.8 kg/m3, the mass density (283.15 K, x1 = 0.7568) was 1433.7 kg/m3 and the mass density (283.15 K, x1 = 0.8748) was 1426.8 kg/m3. For the same molecule, the mass density (283.15 K, x1 = 1) was 1408.5 kg/m3, the mass density (288.15 K, x1 = 0.0877) was 1445.4 kg/m3 and the mass density (288.15 K, x1 = 0.2626) was 1442.9 kg/m3. The mass density (288.15 K, x1 = 0.4753) was 1438.2 kg/m3, the mass density (288.15 K, x1 = 0.6153) was 1434 kg/m3 and the mass density (288.15 K, x1 = 0.7568) was 1427.3 kg/m3. For the same molecule, the mass density (288.15 K, x1 = 0.8748) was 1419.8 kg/m3, the mass density (288.15 K, x1 = 1) was 1400.2 kg/m3 and the mass density (293.15 K, x1 = 0.0877) was 1440.5 kg/m3. The mass density (293.15 K, x1 = 0.2626) was 1437.7 kg/m3, the mass density (293.15 K, x1 = 0.4753) was 1432.8 kg/m3 and the mass density (293.15 K, x1 = 0.7568) was 1421.1 kg/m3. It also gave a mass density (293.15 K, x1 = 0.8748) of 1412.5 kg/m3, a mass density (293.15 K, x1 = 1) of 1391.8 kg/m3 and a mass density (298.15 K, x1 = 0.0877) of 1435.6 kg/m3. For the same molecule, the mass density (298.15 K, x1 = 0.4753) was 1427.3 kg/m3, the mass density (298.15 K, x1 = 0.6153) was 1422.4 kg/m3 and the mass density (298.15 K, x1 = 0.8748) was 1405.6 kg/m3. For the same molecule, the mass density (298.15 K, x1 = 1) was 1383.4 kg/m3, the mass density (303.15 K, x1 = 0.0877) was 1430.7 kg/m3 and the mass density (303.15 K, x1 = 0.2626) was 1427.6 kg/m3. The mass density (303.15 K, x1 = 0.4753) was 1422 kg/m3, the mass density (303.15 K, x1 = 0.6153) was 1416.7 kg/m3 and the mass density (303.15 K, x1 = 0.7568) was 1408.6 kg/m3. For the same molecule, the mass density (303.15 K, x1 = 0.8748) was 1398.9 kg/m3, the mass density (303.15 K, x1 = 1) was 1374.9 kg/m3 and the mass density (308.15 K, x1 = 0.0877) was 1425.8 kg/m3. It also gave a mass density (308.15 K, x1 = 0.2626) of 1422.6 kg/m3, a mass density (308.15 K, x1 = 0.4753) of 1416.6 kg/m3 and a mass density (308.15 K, x1 = 0.6153) of 1411 kg/m3. It also gave a mass density (308.15 K, x1 = 0.7568) of 1402.4 kg/m3, a mass density (308.15 K, x1 = 0.8748) of 1392 kg/m3 and a mass density (308.15 K, x1 = 1) of 1366.2 kg/m3. The mass density (313.15 K, x1 = 0.0877) was 1421 kg/m3, the mass density (313.15 K, x1 = 0.2626) was 1417.5 kg/m3 and the mass density (313.15 K, x1 = 0.6153) was 1405.4 kg/m3. For the same molecule, the mass density (313.15 K, x1 = 0.7568) was 1396.2 kg/m3, the mass density (313.15 K, x1 = 0.8748) was 1384.4 kg/m3 and the mass density (313.15 K, x1 = 1) was 1357.4 kg/m3. It also gave a mass density (318.15 K, x1 = 0.0877) of 1416.2 kg/m3, a mass density (318.15 K, x1 = 0.2626) of 1412.5 kg/m3 and a mass density (318.15 K, x1 = 0.6153) of 1399.7 kg/m3. It also gave a mass density (318.15 K, x1 = 0.7568) of 1389.9 kg/m3, a mass density (318.15 K, x1 = 0.8748) of 1377.5 kg/m3 and a mass density (318.15 K, x1 = 1) of 1348.5 kg/m3. The mass density (323.15 K, x1 = 0.0877) was 1411.4 kg/m3, the mass density (323.15 K, x1 = 0.2626) was 1407.6 kg/m3 and the mass density (323.15 K, x1 = 0.4753) was 1400.7 kg/m3. For the same molecule, the mass density (323.15 K, x1 = 0.6153) was 1394.1 kg/m3, the mass density (323.15 K, x1 = 0.7568) was 1383.8 kg/m3 and the mass density (323.15 K, x1 = 0.8748) was 1370.5 kg/m3. It also gave a mass density (328.15 K, x1 = 0.0877) of 1406.6 kg/m3, a mass density (328.15 K, x1 = 0.2626) of 1402.6 kg/m3 and a mass density (328.15 K, x1 = 0.4753) of 1395.5 kg/m3. For the same molecule, the mass density (328.15 K, x1 = 0.6153) was 1388.4 kg/m3, the mass density (328.15 K, x1 = 0.7568) was 1377.6 kg/m3 and the mass density (328.15 K, x1 = 0.8748) was 1363.3 kg/m3. For the same molecule, the mass density (328.15 K, x1 = 1) was 1330.1 kg/m3, the mass density (333.15 K, x1 = 0.0877) was 1401.9 kg/m3 and the mass density (333.15 K, x1 = 0.4753) was 1390.2 kg/m3. For the same molecule, the mass density (333.15 K, x1 = 0.6153) was 1382.8 kg/m3, the mass density (333.15 K, x1 = 0.7568) was 1371.4 kg/m3 and the mass density (333.15 K, x1 = 0.8748) was 1356 kg/m3. It also gave a mass density (333.15 K, x1 = 1) of 1320.7 kg/m3.
Molecule CCCC[n+]1ccn(C)c1.O=S(=O)([N-]S(=O)(=O)C(F)(F)F)C(F)(F)F + OCC(F)(F)F has a mass density (278.15 K, x2 = 0) of 1456.1 kg/m3, a mass density (288.15 K, x2 = 0) of 1446.5 kg/m3 and a mass density (293.15 K, x2 = 0) of 1441.6 kg/m3. The mass density (298.15 K, x2 = 0) was 1436.8 kg/m3, the mass density (303.15 K, x2 = 0) was 1432 kg/m3 and the mass density (308.15 K, x2 = 0) was 1427.2 kg/m3. For the same molecule, the mass density (313.15 K, x2 = 0) was 1422.5 kg/m3, the mass density (318.15 K, x2 = 0) was 1417.8 kg/m3 and the mass density (323.15 K, x2 = 0) was 1413.1 kg/m3. It also gave a mass density (328.15 K, x2 = 0) of 1408.5 kg/m3 and a mass density (333.15 K, x2 = 0) of 1403.8 kg/m3.

— a compilation of properties of binary mixtures (doi:10.1016/j.jct.2013.10.027)
